The values below come from PubChem BioAssay AID463173 (ICCB-Longwood Screening Facility, Harvard Medical School, 2010).

The campaign covered roughly 52,000 compounds. About 4,300 (8.3%) were called active. No stated cut-off is given here; in the data, active means survival mostly below about 52% (no sharp cut-off); inactive means mostly above about 56%. The list shows a part of the results.

For the assay, the system named is DeltatarO mutant. Nature of the assay: growth inhibition of S. aureus wild type versus tarO mutant, primary screen, teichoic acid synthesis inhibitors, RN4220, OD600 (AID 463173). Particulars: OD600, 18 h, hits give low values, screened at 18.75 µg/mL (by protocol).
Turning to `Cc1noc(C)c1S(=O)(=O)N1CCC(C(=O)N2CCN(c3ccccc3)CC2)CC1`, the survival was inactive: 129%.
As for `CCOC(=O)c1oc2c(c1C)-c1nn(Cc3ccc(Cl)cc3)cc1CC2`, the survival is active: 16%.
With `CC(=O)Oc1c(O)ccc2c(C)cc(=O)oc12`, the survival is inactive: 57%.
The figure for `C/C(=N\NC(=O)c1cc2ccccc2cc1O)c1ccc(N)cc1` is inactive: 70%; for `CCOC(=O)Cc1ccc(NC(=O)NCc2ccc3c(c2)CCN3C(=O)CC)cc1` it is inactive: 71%.
The figure for `O=C(CCS(=O)(=O)c1cc(Br)cc2c1N(C(=O)C1CC1)CC2)Nc1ccc(Br)cc1F` is inactive: 98%; for `O=S(=O)(c1ccc2c(c1)OCCO2)N1CCN(c2ncccn2)CC1` it is inactive: 94%; for `COc1ccccc1C(=O)Nc1cc2c(cc1N1CCOCC1)n(C)c(=O)n2C` it is inactive: 136%.
On to `COc1cc2[nH]c(=O)n(CCCCCC(=O)N3CCN(c4cccc(C(F)(F)F)c4)CC3)c(=O)c2cc1OC`, for which the survival was inactive: 83%.
The figure for `COc1cccc(Oc2nc3c(c(=O)n(Cc4ccccc4F)c(=O)n3C)n2C)c1` is inactive: 74%; for `CC(C)OC(=O)C1=C(N)OC2=C(C(=O)CCC2)C1c1ccccc1F` (stereo unspecified) it is inactive: 73%; for `Cc1cccc(NS(=O)(=O)c2ccc3oc(=O)c4ncn(C)c4c3c2)c1C` it is inactive: 109%.
As to `COc1cccc(N2CCN(C(=O)c3c(C)oc4ncnc(N5CCOCC5)c34)CC2)c1`, the survival is inactive: 89%.
For `Cc1c(C(=O)N(C)C)sc2c1c(=O)n(-c1ccc(Cl)c(Cl)c1)c(=O)n2CC(=O)Nc1cccc(C(F)(F)F)c1` the value was active: 46%; for `CC(C)c1ccc(NC(=O)CN(C)S(=O)(=O)c2ccc3c(c2)c(=O)n(C)c(=O)n3C)cc1`, inactive: 81%.
For `CCn1c(=O)n(CC)c2cc(N3CCCCC3)c(NC(=O)Nc3ccccc3Cl)cc21` the value was inactive: 95%; for `COc1ccc2c(CNCCc3cccs3)c(C(=O)O)n(Cc3ccccc3)c2c1`, inactive: 75%.
Consider `O=C(CCCN1C(=O)C(c2ccccc2)Oc2cccnc21)Nc1ccc(Br)cc1F` (stereo unspecified), for which the survival was inactive: 82%.
For `O=C(NC1CCCc2ccccc21)c1ccc2c(c1)sc1nc(-c3ccc(F)cc3)cn12` (stereo unspecified), the survival is inactive: 68%.
Take `CCn1c(CSc2nc(C)cc(C)n2)nnc1SCc1ccccc1`: the survival was inactive: 101%.
The figure for `CCOc1ccc(CCNC(=O)c2cc3c(=O)[nH]c4ccc(C)cc4c3s2)cc1OCC` is inactive: 73%; for `CCc1ccc2c(c1)NC(c1cccs1)=NC(c1ccc(F)cc1)=N2` it is inactive: 52%; for `CCc1ccccc1N(C)C(=O)Cn1cnc2sc(C)c(S(=O)(=O)N3CCN(c4ncccn4)CC3)c2c1=O` it is inactive: 77%.
`COc1ccc(NC(=O)Cn2c(=O)oc3cc(S(=O)(=O)N4CCC(C)CC4)ccc32)c(OC)c1`: the survival is inactive: 85%.
As to `Cc1ccc(NS(=O)(=O)c2cc(Br)cc3c2N(C(=O)C2CC2)CC3)cc1C`, the survival is inactive: 95%.
The figure for `OCc1cc(CO)c(O)c(CCc2ccccc2)n1` is inactive: 88%; for `CCCS(=O)(=O)c1c(Nc2ccccc2C)sc(C(=O)c2ccccc2)c1N` it is active: 28%.
`CCOc1ccccc1CNC(=O)CCn1ccc2cc(S(=O)(=O)N3CCC(C)CC3)ccc21`: the survival was inactive: 89%.
Take `COC(=O)c1ccc(Cn2nnc3sc4c(c3c2=O)CCC(C)C4)cc1` (stereo unspecified): the survival is inactive: 79%.
Take `O=C(NCc1cccc(F)c1)c1ccc(-n2cnc3cccnc32)cc1`: the survival is inactive: 97%.
For `Cc1cccc(Cn2cc(C(=O)Nc3ccc(F)c(C(F)(F)F)c3)ccc2=O)c1` the value was inactive: 120%; for `CCCCN(CC)CCNC(=O)c1cc2c(=O)oc3ccc(C)cc3c2s1`, inactive: 105%.
Turning to `CCn1c(=O)c2cc(C(=O)NCCc3cc(OC)ccc3OC)sc2c2ccccc21`, the survival was active: 34%.
The figure for `CCc1ccc2nc(N3CCCC3)c(C#N)cc2c1` is inactive: 73%; for `Cc1cc(C)cc(-n2c(C)cc(/C=N/NC(=O)CSc3ncccn3)c2C)c1` it is inactive: 106%.
Regarding `O=C(Cn1c(=O)n(-c2cccc(Cl)c2)c(=O)c2sc3ccccc3c21)N1CCCC1`, the survival was inactive: 76%.
For `CCOc1ccc(C(=O)Nc2c(C(=O)Nc3ccccc3F)oc3ccccc23)cc1OCC` the value was inactive: 46%; for `CCN(CC)CCCNC(=O)C1CCN(S(=O)(=O)CC)CC1`, inactive: 122%.
For `O=S1(=O)c2ccccc2N(Cc2ccccc2)c2ccccc21` the value was inactive: 69%; for `CC(=O)c1ccc(NC(=O)c2c3c(nc4ccccc24)C(=O)N(C2CCCCC2)C3)cc1`, inactive: 115%.
Turning to `COC(=O)c1cc(C)nc2c1c(=O)nc(SCc1ccccc1F)n2C1CC1`, the survival was inactive: 84%.
For `CCOC(=O)CN1C(=O)C(O)(CC(=O)c2cc(OC)ccc2OC)c2ccccc21` (stereo unspecified) the value was inactive: 184%.
As to `Cn1cc(S(=O)(=O)c2ccccc2)c(=O)c2cc(F)c(N3CCN(c4ccccc4)CC3)cc21`, the survival was inactive: 116%.
For `Cc1cccc(-n2c(-c3ccccc3)cn3c4c(=O)[nH]c(=O)n(C)c4nc23)c1` the value was inactive: 145%; for `Cc1ccc(-c2cc(C(F)(F)F)n3nc(C(=O)Nc4ccc(Cl)c(C(F)(F)F)c4)cc3n2)cc1`, inactive: 77%.
For `Cc1cc(C)c(Cn2c3ccccc3c3cnn(CC(=O)N4CCCCCC4)c(=O)c32)c(C)c1` the value was active: 9%; for `Cc1cccc(C)c1OCC(=O)Nc1nc(-c2ccc(Br)cc2)ns1`, inactive: 61%.
The figure for `Nc1cc(N)nc(SCC(=O)NCc2ccccc2)n1` is inactive: 99%; for `O=C(NCc1ccc(Cl)cc1)C(=O)Nc1ccc(Br)cc1` it is inactive: 63%; for `COc1ccc(C2=NN(C(=O)CCC(=O)O)C(c3ccccc3F)C2)cc1OC` (stereo unspecified) it is inactive: 89%.
On to `CCc1cccc(NC(=O)Cn2c(=O)n(Cc3ccccc3)c(=O)c3c2c2cc(OC)ccc2n3C)c1`, for which the survival is inactive: 86%.
Take `CC1CCN(Cc2c(O)ccc3c(=O)c(-c4cccc(Cl)c4)c(C(F)(F)F)oc23)CC1`: the survival is inactive: 59%.
As to `CC(=O)c1cc2c(cc1NC(=O)c1c(C)nn(-c3ccc(C)cc3)c1-n1cccc1)OCO2`, the survival was inactive: 83%.
As to `COc1ccc(OCCn2cc(C(=O)C3CCCCC3)c3ccccc32)cc1`, the survival was active: 13%.
For `O=C(Nc1cccc(Br)c1)N1CCC(CN2CCCCC2)CC1`, the survival is inactive: 83%.
Regarding `Cc1ccc(NC(=O)CSc2nc3ncccc3[nH]2)cc1F`, the survival was inactive: 94%.
